From PubChem BioAssay AID1460 (National Center for Advancing Translational Sciences (NCATS), 2008)
The campaign covered roughly 270,000 compounds. About 5,800 (2.1%) were called active. The inconclusive results got no clear call from the source; some entries with a clear call stand among them for comparison. Calls come from the whole dose curve; as a rule, active = well fitted inhibition curve with a large enough effect; inconclusive = small, poorly fitted or top-dose-only effect; inactive = flat fitted curve, though single readings scatter. A potency beside an inconclusive call is a rough fit, not a confirmed value.

biological target: Microtubule-associated protein tau (Homo sapiens) (UniProt P10636); experiment: qHTS for Inhibitors of Tau Fibril Formation, Thioflavin T Binding; conditions: recombinant tau K18 P301L, heparin-induced fibrillization, ThT fluorescence; series mostly up to 57.4 µM; note: nearly all actives have a fitted effect of over 55% in size
UniProt P10636, sequence (P10636 whole entry, looked up): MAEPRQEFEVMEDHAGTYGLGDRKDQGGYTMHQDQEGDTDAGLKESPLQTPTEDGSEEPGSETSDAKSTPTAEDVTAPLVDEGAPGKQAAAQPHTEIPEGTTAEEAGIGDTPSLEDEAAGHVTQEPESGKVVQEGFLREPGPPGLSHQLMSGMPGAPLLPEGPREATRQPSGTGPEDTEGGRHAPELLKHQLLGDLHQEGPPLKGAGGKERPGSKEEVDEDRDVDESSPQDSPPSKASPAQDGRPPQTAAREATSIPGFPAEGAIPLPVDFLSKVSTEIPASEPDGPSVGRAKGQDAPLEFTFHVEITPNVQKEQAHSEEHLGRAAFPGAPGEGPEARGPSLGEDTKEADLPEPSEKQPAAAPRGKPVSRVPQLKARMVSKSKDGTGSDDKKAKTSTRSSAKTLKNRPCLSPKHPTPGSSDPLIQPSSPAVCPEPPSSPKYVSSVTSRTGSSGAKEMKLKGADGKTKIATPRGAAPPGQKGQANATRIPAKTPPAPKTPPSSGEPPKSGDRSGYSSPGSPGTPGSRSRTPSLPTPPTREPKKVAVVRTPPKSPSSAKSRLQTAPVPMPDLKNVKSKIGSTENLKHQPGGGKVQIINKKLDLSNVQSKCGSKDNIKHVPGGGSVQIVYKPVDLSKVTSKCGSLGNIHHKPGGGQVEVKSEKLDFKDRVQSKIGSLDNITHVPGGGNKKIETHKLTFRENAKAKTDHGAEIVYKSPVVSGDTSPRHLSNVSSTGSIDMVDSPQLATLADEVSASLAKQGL
How it was run: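 Fibril formation assay: tau K18 P301L at 15 uM with trace Alexa 594 label, heparin inducer 20 uM, pH 7 sodium acetate buffer, 37 C for 6 hr; endpoint ThT signal.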
Potency is the fitted concentration of half-maximal effect; tags give direction and shape of the fitted curve.

SMILES	Potency
O=[N+]([O-])c1ccc2[nH]c3c(c2c1)CCCC3	inconclusive: 12.6 µM [inhibitor, partial curve]
O=C(NCc1ccc2c(c1)OCO2)c1ccc2c(c1)N(Cc1ccccc1F)C(=O)c1ccccc1S2=O (centres undefined)	inactive
CCc1nnc2sc(-c3ccc(NC(=O)c4ccc5c(c4)OCCO5)cc3)nn12	inconclusive: 0.794 µM [inhibitor, full curve]
COC(=O)C1=C(C)N(c2ccc(C)c(C)c2)/C(=C/c2ccco2)C1=O	inconclusive: 11.2 µM [inhibitor, partial curve, poor fit]
CCN(Cc1ccncc1)Cc1c(O)ccc2ccccc12	inconclusive: 14.1 µM [inhibitor, partial curve]
COC(=O)c1ccc(CSc2cc(C)c3cc(C)cc(C)c3n2)o1	inconclusive: 17.8 µM [inhibitor, single point]
O=C(O)Cn1cc(/C=C2/SC(=O)N(CC(=O)N3CCCCCC3)C2=O)c2ccccc21	inconclusive: 44.7 µM [inhibitor, single point]
O=C(CCSc1nnc2ccc3ccccc3n12)Nc1ccc(F)cc1	inactive
COc1ccc(CCNc2nc(-c3cccc(NC(C)=O)c3)cs2)cc1OC	inconclusive: 14.1 µM [inhibitor, partial curve]
O=CN1CCN(C(C(=O)NC2CCCCC2)c2cc3c(cc2[N+](=O)[O-])OCO3)CC1 (centres undefined)	inconclusive: 14.1 µM [inhibitor, single point]
CCSc1oc(-c2cccs2)nc1S(=O)(=O)c1ccc(Br)cc1	inconclusive: 35.5 µM [inhibitor, single point]
O=C1C(=O)c2ccccc2C(O)=C1c1ccccc1F	inconclusive: 17.8 µM [inhibitor, partial curve]
CC1CCN(CC(=O)n2c3c(c4ccccc42)CCCC3)CC1	inconclusive: 22.4 µM [inhibitor, partial curve]
CCCCC(=O)Nc1nc(C)c(-c2csc(Nc3cc(OC)ccc3OC)n2)s1	inconclusive: 12.6 µM [inhibitor, partial curve]
C#CCSc1nc(-c2cccs2)ccc1C#N	inactive
CCOC(=O)c1ccc(NC(=O)CC2Nc3cccc4cccc(c34)NC2=O)cc1 (centres undefined)	active: 12.6 µM
CCC1Cc2c(nc(N)c3c(N)nc(N4CCCCC4)c(C#N)c23)O1 (centres undefined)	inconclusive: 14.1 µM [inhibitor, partial curve]
Cc1noc(C)c1S(=O)(=O)Nc1ccc(C(=O)Nc2ccc(C(C)C)cc2)cc1	inactive
COc1ccc(-c2onc(C)c2C)cc1S(=O)(=O)N1CCc2ccccc21	inactive
